# Reference: PubChem BioAssay AID1346428 (National Center for Advancing Translational Sciences (NCATS), 2018)
# Where “and” joins values, the source holds several entries; their conditions need not be identical. Identical values can stand only once. About 1,200 (2.5%) of roughly 48,000 compounds were called active. Not shown: some 2% with an inconclusive outcome.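 Rule for the calls: active = activation of at least 60% and not above a set upper limit (about 1 call in 100 departs from these limits); inconclusive = activation of 40% to 60%, or above that upper limit; inactive = activation under 40%.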 This is one part of the list.
# Biological target: Probable G-protein coupled receptor 32 (Homo sapiens) (UniProt O75388)
# Assay: qHTS for Agonists of Human Resolvin D1 Receptor DRV1
# Conditions: CHO-K1 GPR32 beta-arrestin PathHunter luminescence, 90 min; at 76.9 µM; hits give high values; zero percent set by DMSO-only wells
# Outline: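 Using DMSO wells as EC0, agonist-induced signal was taken as chemiluminescence from beta-Gal reconstituted upon beta-arrestin recruitment to GPR32 in CHO-K1 cells after 90 min compound treatment.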
# UniProt O75388, sequence (O75388 whole entry, looked up): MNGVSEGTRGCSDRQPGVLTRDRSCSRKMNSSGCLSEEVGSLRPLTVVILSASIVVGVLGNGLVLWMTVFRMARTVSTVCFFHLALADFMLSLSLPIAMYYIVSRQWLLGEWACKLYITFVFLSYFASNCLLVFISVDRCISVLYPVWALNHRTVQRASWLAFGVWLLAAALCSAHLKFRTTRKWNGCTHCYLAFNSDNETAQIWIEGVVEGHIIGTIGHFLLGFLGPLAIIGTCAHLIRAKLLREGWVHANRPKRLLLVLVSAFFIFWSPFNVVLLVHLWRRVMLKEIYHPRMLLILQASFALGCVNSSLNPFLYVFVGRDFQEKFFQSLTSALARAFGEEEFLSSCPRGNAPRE
row,Compound,activation
1,COc1ccc(OC)c(S(=O)(=O)N2CCC(c3ccncc3)CC2)c1,inactive: 3.09%
2,C[C@]12C[C@H](O)[C@H]3[C@@H](CCC4=CC(=O)CC[C@@]43C)[C@@H]1CC[C@@H]2C(=O)CO,inactive: -43.1% and inactive: -5.05%
3,CCc1ccc(C(=O)c2cn(CC(=O)NCCc3ccc(OC)c(OC)c3)c3nc(C)ccc3c2=O)cc1,inactive: 23%
4,COc1cccc(NC(=O)CSC2=Nc3ccccc3N=C(c3ccc(F)cc3)C2)c1,inactive: -40.9%
5,O=C(c1ccc2c(c1)N(Cc1ccccc1F)C(=O)c1ccccc1S2(=O)=O)N1CCCCC1,inactive: -9.51%
6,CCc1ccc(-n2c(SCc3ccccc3F)nc3[nH]ncc3c2=O)cc1,inactive: -44.9%
7,O=C(CCc1nc(CN2CCN(S(=O)(=O)c3ccc(F)cc3)CC2)no1)N1CCCCC1,inactive: 4.32%
8,O=C1c2[nH]nc(-c3ccccc3O)c2C(c2ccc(Cl)cc2)N1Cc1ccco1 (stereo not drawn),inactive: 30.6%
9,COc1ccccc1NC(=O)Cn1c(=O)n(-c2cccc(C(C)=O)c2)c(=O)c2c3c(sc21)CN(C(C)=O)CC3,inactive: -0.0168%
10,O=C(CCC1N=C2c3ccccc3N=C(SCC(=O)Nc3ccccc3F)N2C1=O)NCc1ccccc1 (stereo not drawn),inactive: -13.9%
11,Cc1ccc(C2C=C(c3ccc(Cl)cc3)Nc3nc(NS(=O)(=O)c4ccccc4)nn32)cc1 (stereo not drawn),active: 73%
12,CCN1CCN(C(=O)c2cnn(-c3ccc(F)cc3)c2-n2cccc2)CC1,inactive: -1.17%
13,O=C(NC1CCCCC1)c1cc(Nc2cccc(C(F)(F)F)c2)nc2ccccc12,inactive: 7.13%
14,COc1cc(NC(=O)c2noc3c2CSc2ccccc2-3)cc(OC)c1OC,inactive: -16%
15,Cc1ccn2c(=O)cc(CSc3nnc(NC(=O)c4ccccc4Cl)s3)nc2c1,inactive: -1.49%
16,COc1cc(C(=O)Nc2nc3nc(-c4ccccc4)cc(=O)n3[nH]2)cc(OC)c1OC,inactive: 1.54%
17,Cc1ccc(SCc2nc(-c3ccc(C(=O)NCc4ccc(Cl)cc4)cc3)oc2C)cc1,inactive: -16.3%
18,Cc1ccn2c(Nc3ccccc3C)c(-c3ccccn3)nc2c1,inactive: -94.9%
19,COCCCNC(=O)C1CCCN(C(=O)c2cnn(-c3ccc(F)cc3)c2-n2cccc2)C1 (stereo not drawn),inactive: 0.403%
20,Cc1cc(C)c(CSc2nnc(C)n3c2cc2occc23)c(C)c1,inactive: -2.09%
21,CCN(Cc1ccccc1)C(=O)c1nc(-c2cccc(F)c2)n2c1CCCCC2,inactive: -24.7%

row,Compound,activation
1,COc1ccc(CNC(=O)c2cc3c(=O)[nH]c4ccccc4c3s2)cc1,inactive: 13.4%
2,Cc1cccc(N2CCN(C(=O)NCc3noc4ccccc34)CC2)c1C,inactive: -24.8%
3,CCOC(=O)c1ccccc1NC(=O)CCOc1ccccc1,inactive: -21.6%
4,O=C(CCN1CCN(CCO)CC1)N1c2ccccc2Sc2ccc(C(F)(F)F)cc21,inactive: -5.53%
5,OCCCc1nc2ccccc2n1CCCCOc1ccccc1,inactive: 12.5%
6,Cc1cccc(-c2noc(CN(C(=O)COc3ccc(Br)cc3C)C(C)C)n2)c1,inactive: -2.53%
7,COc1ccccc1CNC(=O)C(=O)NCC(c1ccco1)S(=O)(=O)c1cccs1 (stereo not drawn),inactive: -13.6%
8,O=C(NC1CCCCC1)c1cc2c(Cl)nc3ccccc3c2s1,inactive: 4.14%
9,CCOc1ccc(NC(=O)C(NS(=O)(=O)c2cccc3nsnc23)c2ccccc2)cc1 (stereo not drawn),inactive: -37.5%
10,COc1ccc(Cl)cc1NC(=O)Cn1c(=O)n(Cc2ccco2)c(=O)c2cccnc21,inactive: -4.6%
11,CCn1cc(C(=O)N2CCN(c3cc(C)ccc3C)CC2)c(=O)c2cc(S(=O)(=O)N3CCOCC3)ccc21,inactive: -1.9%
12,CCn1c(=O)n(CC)c2cc(N3CCCCC3)c(NC(=O)Nc3cc(C)cc(C)c3)cc21,inactive: -20%
13,CCOC(=O)c1c(N)n(-c2cccc(OC)c2)c2nc3ccccc3nc12,inactive: 1.52%
14,COc1ccc(C(=O)NCCn2cc(SCC(=O)Nc3cccc(C)c3)c3ccccc32)cc1,inactive: 39.5%
15,CCOC(=O)C1CCN(C(=O)Cn2c(=O)cc(C)c3c(C)nn(C)c32)CC1,inactive: 42%
16,Cc1oc2ncn(CC(C)C)c(=O)c2c1C(=O)N1CCN(c2cccc(C(F)(F)F)c2)CC1,inactive: -4.74%
17,COCCc1nn2c(=O)cc(COC(=O)c3ccc(OC)c(OC)c3)nc2s1,inactive: -9.96%
18,Cc1ccc(C)n1-c1c(C(=O)NCCC(C)C)sc2ncccc12,inactive: 2.98%
19,Cc1cccc(-n2ncc3c(Nc4ccc(Oc5ccc(Cl)cc5)cc4)ncnc32)c1,inactive: 48%
20,COc1cc(-c2nc3nc[nH]n3c2Nc2ccc(C(C)C)cc2)ccc1O,inactive: -19%
21,CCc1nn(-c2ccccc2)c2nc(-c3cccc(OC)c3)c3cc(OC)c(OC)cc3c12,inactive: -17.3%

row,Compound,activation
1,COc1cccc(-n2c(=O)c3c(C)c(C(=O)N(C)C)sc3n(Cc3ccc(F)cc3Cl)c2=O)c1,inactive: -14%
2,O=C(CCC1N=C2c3ccccc3N=C(SCc3ccccc3F)N2C1=O)NC1CCCCC1 (stereo not drawn),inactive: -4.01%
3,CCOc1cc(C2C(C(=O)OC)=C(C)NC3=C2C(=O)c2ccccc23)cc(Cl)c1O (stereo not drawn),inactive: -88.6%
4,Cc1ccc(-n2ncc3c(NCCCN4CCOCC4)ncnc32)cc1,inactive: -12%
5,COc1ccc(NC(=O)CN(Cc2ccccc2)S(=O)(=O)c2ccc(C)cc2)cc1Cl,inactive: -5.33%
6,Fc1ccc(-c2nc(Nc3cccc(Cl)c3)nc3c2COc2ccccc2-3)cc1,inactive: -6.12%
7,CCn1c2ccccc2c2nnc(N3CCN(c4cc(C)ccc4C)CC3)nc21,inactive: -17.5%
8,COc1ccc(N2CCN(S(=O)(=O)c3ccc4c(c3)CC(C)N4C(C)=O)CC2)cc1 (stereo not drawn),inactive: 12.2%
9,CCOc1ccccc1NC(=O)c1cc2c(Cl)nc3ccccc3c2s1,inactive: 17.7%
10,COc1ccc(NC(=O)C2Cc3ccccc3N2C(=O)c2ccccc2)c(OC)c1 (stereo not drawn),inactive: -18.5%
11,COc1ccc(N(Cc2cccs2)C(=O)COc2cccc(Cl)c2)cc1,inactive: -17.8%
12,Cc1ccc(Cl)cc1NC(=O)c1oc2c(c1C)-c1[nH]ncc1CC2,inactive: 5.94%
13,CCN(CCCNC(=O)c1c(C)oc2ncn(CC(C)C)c(=O)c12)Cc1ccccc1,inactive: -3.69%
14,CC1=C(C(=O)OC2CCCCCC2)C(c2c(F)cccc2Cl)CC(=O)N1 (stereo not drawn),inactive: 13.6%
15,CCOC(=O)c1c(Nc2ccc(C)cc2)nnc(-c2ccccc2)c1-c1ccccc1,inactive: 20.3%
16,O=C1CC2(CCCC2)CC(=O)N1,active: 65.4%
17,Cn1c(=O)n(-c2ccc(F)c(Cl)c2)c(=O)c2sc3ccccc3c21,inactive: -3.65%
18,CCN(CC)c1ccc(C(=C2C=CC(=[N+](CC)CC)C=C2)c2cc(S(=O)(=O)O)ccc2S(=O)(=O)[O-])cc1,inactive: -77.8%
19,CCC1CCCCN1C(=O)c1ccc2c(c1)N(Cc1cccc(Cl)c1)C(=O)c1ccccc1S2(=O)=O (stereo not drawn),inactive: -18.5%
20,COc1ccc2c(C)c(CCC(=O)NCCc3ccccc3OC)c(=O)oc2c1,inactive: 7.22%
21,CCc1ccccc1NS(=O)(=O)c1ccc(OC)c2ncccc12,inactive: 13.9%

row,Compound,activation
1,COc1ccc(NCc2cc3cc4c(cc3n(CC(=O)Nc3ccc(F)cc3F)c2=O)OCO4)cc1,inactive: -43.8%
2,CC(C)C[C@H](NC(=O)C1OC1C(=O)O)C(=O)NCCCCN=C(N)N (stereo partly drawn),inactive: 1.27%
3,COC(=O)CCSc1nc2sc3c(c2c(=O)n1Cc1ccccc1)CCC(C(C)(C)C)C3 (stereo not drawn),inactive: 26.3%
4,CCOC(=O)c1cnc2c(Cl)cccc2c1NCCN1CCOCC1,inactive: -1.92%
5,COc1cc(C(=O)Nc2cc3c(cc2C)n(C)c(=O)c(=O)n3C)cc(OC)c1OC,inactive: 8.33%
6,COc1ccccc1-c1noc(-c2ccc(N3CCC(C)CC3)c([N+](=O)[O-])c2)n1,inactive: -27.9%
7,Cc1ccc(NC(=O)c2sc3nc(-c4cc5ccccc5oc4=O)[nH]c(=O)c3c2C)c(C)c1,inactive: 0.651%
8,CCC(=O)N1CCc2cc(S(=O)(=O)NC(Cc3ccccc3)C(=O)Nc3ccc(C)cc3)ccc21 (stereo not drawn),inactive: -3.08%
9,CCN1C(=O)c2ccccc2Sc2ccc(NC(C)=O)cc21,inactive: -10.3%
10,COc1cc(C(=O)Nc2cc(C)ccc2OCc2cc(=O)n3c(C)csc3n2)cc(OC)c1OC,inactive: -11.4%
11,CCOc1ccc(-c2cc(OC(=O)c3ccc(F)cc3)c3c(C)oc(C)c3c(=O)c2)cc1,inactive: -17.3%
12,CCOc1ccc(-n2c(SCc3ccc(C(=O)OC)o3)nc3c([nH]c4ccccc43)c2=O)cc1,inactive: -2.06%
13,CCCc1cc(=O)[nH]c(Nc2cccc(Cl)c2Cl)n1,active: 87.2%
14,COc1ccc(CCNC(=O)c2cc3c(-c4ccccc4F)nn(C)c3s2)c(OC)c1,inactive: 8.72%
15,CCOC(=O)C1CCCN(S(=O)(=O)c2ccc3c(c2)CCCN3C(C)=O)C1 (stereo not drawn),inactive: 3.51%
16,COc1ccc(NC(=O)c2cc3c(s2)-c2c(C)cccc2OC3)c(OC)c1,inactive: -24.5%
17,O=C(Nc1ccc(Br)cc1F)c1cc(S(=O)(=O)NCc2ccc(F)cc2)ccc1F,inactive: 31.3%
18,C=C(C)Cn1c(=O)c2c(nc3n2CCN3c2ccc(CC)cc2)n(C)c1=O,inactive: -1.52%
19,CCCCNc1nc(Oc2ccc(=O)[nH]n2)nc(N(C)C)n1,inactive: 11.8%
20,CCOC(=O)c1cccc(NC(=O)c2cc3c(=O)n(Cc4ccccc4)ccc3nc2C)c1,inactive: -40.6%
